# Test results as given in paper PMC7819943, “Rice protein-binding microarrays: a tool to detect cis-acting elements near promoter regions in rice”.
# Some of the results follow.
# Molecular target: T1, OsWOX13 (Oryza sativa, UniProt Q5QMM3 1-267)
# T1 sequence: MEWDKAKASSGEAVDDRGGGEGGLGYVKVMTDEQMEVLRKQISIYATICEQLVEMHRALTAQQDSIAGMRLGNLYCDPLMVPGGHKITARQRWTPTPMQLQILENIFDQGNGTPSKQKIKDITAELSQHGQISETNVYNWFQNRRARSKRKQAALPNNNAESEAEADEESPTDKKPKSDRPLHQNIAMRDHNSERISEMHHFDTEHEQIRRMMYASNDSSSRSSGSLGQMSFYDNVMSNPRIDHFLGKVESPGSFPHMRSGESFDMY
# Experiment: protein-binding microarray (RPBM); PBS, 2% BSA, 51.3 ng/ul salmon testes DNA, 50 uM zinc acetate, 200 nM TF, 25 C, 1 h; high values mean tight binding
# Conditions: protein: recombinant; tags: N-terminal polyhistidine and DsRed monomer fusion (pET32a); label: CyDye5-dUTP incorporated in the synthesized complementary strand; 3' TTTTT single-stranded linker to array surface; dsDNA, one strand shown
# In short: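 Transcription factors were made in E. coli BL21-CodonPlus as N-terminal fusions to a polyhistidine tag and DsRed, then purified on Ni–NTA. After primer extension with Cy5-dUTP and blocking with 2% BSA, a custom Agilent array was exposed for 1 h at 25 °C to 200 nM protein in PBS, 2% BSA, salmon testes DNA and 50 µM zinc acetate. Washed arrays were scanned on an Axon 4000B, and the binding signal is per-feature fluorescence intensity in arbitrary units.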
row,Sequence,binding signal
1,CATAGATTAATATGAAATATATAACTCCACAAATATGCAACGGAGTCACCTAGTGCAG,9440 fluorescence intensity (a.u.)
2,AAGGAAAATTAATAGCATACAGGCATGCATTTACGTACTTCGGAGTCACCTAGTGCAG,5500 fluorescence intensity (a.u.)
3,TGTGACTTAATCACGAAGAACTTCGACGTGAATGGCCAATCGGAGTCACCTAGTGCAG,3750 fluorescence intensity (a.u.)
4,GTGATGAATTCATTAATTTTAAGATATATATGATGGCCAACGGAGTCACCTAGTGCAG,18200 fluorescence intensity (a.u.)
5,TGTGTCATGTTCTGATTGGCTGTGGTTGGTTTGATTTTCTCGGAGTCACCTAGTGCAG,21100 fluorescence intensity (a.u.)
6,AAAATTAAGTGATTGATCAATAAGAATAAGTGAGTCAATTCGGAGTCACCTAGTGCAG,40400 fluorescence intensity (a.u.)
7,GTCCTAGCTTTGTGATGATTAATTTAGAGGTGGTCAAGATCGGAGTCACCTAGTGCAG,3870 fluorescence intensity (a.u.)
8,ATCTTCTTGTTATTTGCATATTAATTAAATAACTATAAAACGGAGTCACCTAGTGCAG,4520 fluorescence intensity (a.u.)
9,TCTCGTTGATAGCTTGATACATCTCTCTCGATTCGTAGAGCGGAGTCACCTAGTGCAG,4320 fluorescence intensity (a.u.)
10,AGTAAATTAATGTGATTTATGATAATTTAAATTTAAATAGCGGAGTCACCTAGTGCAG,50800 fluorescence intensity (a.u.)
11,CCAAATTTGGCTTAAGATTTGTCCAGCTACAAGTTTGCTACGGAGTCACCTAGTGCAG,8110 fluorescence intensity (a.u.)
12,CAAACTCACAATCAACGAACAGTTTTAAACGTAAATACGGCGGAGTCACCTAGTGCAG,4320 fluorescence intensity (a.u.)
13,ACTCAACAGATTAACTTAAATATGAGCCTGTTGCTGACTGCGGAGTCACCTAGTGCAG,5980 fluorescence intensity (a.u.)
14,TTCTGAGTGTATAATTAATGTTTATGTGGTCACGTACTTGCGGAGTCACCTAGTGCAG,4250 fluorescence intensity (a.u.)
15,GGTGATGATGTAACTTAAATGTGATGGGTAATTATGTAACCGGAGTCACCTAGTGCAG,33100 fluorescence intensity (a.u.)
16,GGTCTATTGATGGGTGAAAACTCTTACCCATTAGGTACGTCGGAGTCACCTAGTGCAG,7020 fluorescence intensity (a.u.)
17,ATTTAGTTCATTAATTGAATTGCCTAACAATTGACAAGGGCGGAGTCACCTAGTGCAG,20000 fluorescence intensity (a.u.)
18,CAAATCAATCCACTTGATGGGTGGGTCCACTTGCTACACACGGAGTCACCTAGTGCAG,14800 fluorescence intensity (a.u.)
19,TAAAATTTGGAACTGAAATTTCTAACATTTCGGGTCCATCCGGAGTCACCTAGTGCAG,4680 fluorescence intensity (a.u.)
20,AAAATTTGGTCATTAATTTATCCTGATTTTCTGAGGTATTCGGAGTCACCTAGTGCAG,21800 fluorescence intensity (a.u.)
21,AAAACTAATTTAGTATTATAAATATTACTATATTTGTCTACGGAGTCACCTAGTGCAG,26700 fluorescence intensity (a.u.)

row,Sequence,binding signal
1,CCTCGCGAGCATGGCCATGATTGGAAGCGAGCATGGCCCCCGGAGTCACCTAGTGCAG,4890 fluorescence intensity (a.u.)
2,TTAATTAATTGATCACTTCCAAATCATGTAGCAGTACTGTCGGAGTCACCTAGTGCAG,65400 fluorescence intensity (a.u.)
3,ATTAATTAGATGAAGATTGTATTGCCTCAACCTTTATTTTCGGAGTCACCTAGTGCAG,45400 fluorescence intensity (a.u.)
4,GGATTAATTATACTTAATAAATTCGTATAACAGTTTACATCGGAGTCACCTAGTGCAG,5190 fluorescence intensity (a.u.)
5,TTTTATTGATAGTATAGGTAAGACACGTTCAAATATGATACGGAGTCACCTAGTGCAG,3780 fluorescence intensity (a.u.)
6,AATCCCATGGCTAAAATTGGCTAATTATCCACACATTATCCGGAGTCACCTAGTGCAG,4320 fluorescence intensity (a.u.)
7,CCGAACCACAAACAGACTGGGATTGCATTTGCAATAGGCACGGAGTCACCTAGTGCAG,5080 fluorescence intensity (a.u.)
8,AGAACTGATTAGAGAAACACATTCGAGATATGCGGTTTGCCGGAGTCACCTAGTGCAG,35000 fluorescence intensity (a.u.)
9,CTAACTAATTACTCGGCCAACCGGTTGCTGGGAACATAACCGGAGTCACCTAGTGCAG,5760 fluorescence intensity (a.u.)
10,TAGTTACATAGATAATTTATAACAATACTCCACTTAATATCGGAGTCACCTAGTGCAG,8530 fluorescence intensity (a.u.)
11,AGCCCACTCATAATTTACCAATCCCAAAGAAGATACCTCGCGGAGTCACCTAGTGCAG,4220 fluorescence intensity (a.u.)
12,TCTGATTTGGGAATTAAAACCTCCAATTTAGGTCGATTCCCGGAGTCACCTAGTGCAG,32200 fluorescence intensity (a.u.)
13,CATGACAGAAATGCATGTGACACTTCCATCCTTTCTTGTACGGAGTCACCTAGTGCAG,11300 fluorescence intensity (a.u.)
14,CGTGAGAATGACAAATTGTTAATTATTCCGGGCTTGGGACCGGAGTCACCTAGTGCAG,16200 fluorescence intensity (a.u.)
15,GACGATCAAATTAAACTGACTTTCTGATCACCTGAAACGACGGAGTCACCTAGTGCAG,8580 fluorescence intensity (a.u.)
16,ACTCGCATAATTAACATTTAACAAGCGCTGAAATCCGTTTCGGAGTCACCTAGTGCAG,20800 fluorescence intensity (a.u.)
17,ATATTGGCACTTAATTAACACAGTGGCCTAAGCAGAAGCCCGGAGTCACCTAGTGCAG,4100 fluorescence intensity (a.u.)
18,AATGATTATCTATAAGCTCTCTACAAGAGATCCATGTTAGCGGAGTCACCTAGTGCAG,38200 fluorescence intensity (a.u.)
19,TGAATCTAATTGATGCCTTTTCAGGTTGATAAAGAAGAGGCGGAGTCACCTAGTGCAG,16400 fluorescence intensity (a.u.)
20,ATTCTCGATTTAACACTAATCATCATTATCCTAATAACCACGGAGTCACCTAGTGCAG,6320 fluorescence intensity (a.u.)
21,TCTTTTGATTATCATCAAACTAATATGACTTGTTGATCTTCGGAGTCACCTAGTGCAG,25200 fluorescence intensity (a.u.)
